{"source": "patent US11939397B2", "about": "“ENTPD2 antibodies, combination therapies, and methods of using the antibodies and combination therapies” (Novartis AG, priority 2018, dated 2024)", "molecules": {"B1": {"name": "mAb3: anti-human ENTPD2 antibody generated by humanization of mAb17 (antibody)", "heavy": "QVQLVQSGAEVVKPGASVKISCKASGYTFTDYNMDWVKQAPGQRLEWIGDINPKYDISTYNQQFKGKATITVDTSASTAYMELSSLRSEDTAVYYCARRGFFLYYGINYYYFDVWGQGTLVTVSSASTKGPSVFPLAPSSKSTSGGTAALGCLVKDYFPEPVTVSWNSGALTSGVHTFPAVLQSSGLYSLSSVVTVPSSSLGTQTYICNVNHKPSNTKVDKRV[human IgG1 Fc skipped]", "light": "EIVLTQSPATLSASPGERITLSCSASSSVSYIHWYQQKPGQAPRLLIYSTSNLASGIPARFSGSGSGTFYTLTISSVEPEDAAVYYCHQWSSYPWTFGGGTKLEIKRTVAAPSVFIFPPSDEQLKSGTASVVCLLNNFYPREAKVQWKVDNALQSGNSQESVTEQDSKDSTYSLSSTLTLSKADYEKHKVYACEVTHQGLSSPVTKSFNRGEC"}, "B2": {"name": "mAb6: anti-human ENTPD2 antibody generated by humanization and optimization of mAb16 (antibody)", "heavy": "QVQLQESGPGLVKPSQTLSLTCTVSGYSITSGYYWNWIRQHPGKGLEWMGYISYDADNNYNPSLKNRITISRDTSKNQFSLKLSSVTAADTAVYYCAGGYYRYGLGSYSGSYYYVMDYWGQGTTVTVSSASTKGPSVFPLAPSSKSTSGGTAALGCLVKDYFPEPVTVSWNSGALTSGVHTFPAVLQSSGLYSLSSVVTVPSSSLGTQTYICNVNHKPSNTKVDKRV[human IgG1 Fc skipped]", "light": "DTQMTQSPSSLSVSVGDRATITCKASQSVDYEGHSYMNWYQQKPGKAPKLLIYAASNLESGVPSRFSGSGSGTDFTLTISSVQPEDFATYYCQQSNEDPPTFGGGTKLEIKRTVAAPSVFIFPPSDEQLKSGTASVVCLLNNFYPREAKVQWKVDNALQSGNSQESVTEQDSKDSTYSLSSTLTLSKADYEKHKVYACEVTHQGLSSPVTKSFNRGEC"}, "B3": {"name": "mAb19: anti-human ENTPD2 antibody disclosed in Table 1 (antibody)", "heavy": "EVQLQQFGAELVKPGTSVKISCKASGYTFTDYNMDWVKQSHGKSLEWIGDINPNYDITTYNQRFKGKATLTVDKSSSTAYMELRSLTSEDTAVYYCARRGFFPYYGNSYYYFDVWGAGTTVTVSSASTKGPSVFPLAPSSKSTSGGTAALGCLVKDYFPEPVTVSWNSGALTSGVHTFPAVLQSSGLYSLSSVVTVPSSSLGTQTYICNVNHKPSNTKVDKRV[human IgG1 Fc skipped]", "light": "QIVLTQSPTIMSASLGEEITLTCSASSSVSYMHWYQQKSGTSPKLLIYSTSNLASGVPSRFSGSGSGTFYSLTISSVEAEDAADYYCHQWSNYPWTFGGGTKLEIKRTVAAPSVFIFPPSDEQLKSGTASVVCLLNNFYPREAKVQWKVDNALQSGNSQESVTEQDSKDSTYSLSSTLTLSKADYEKHKVYACEVTHQGLSSPVTKSFNRGEC"}, "B4": {"name": "mAb21: anti-human ENTPD2 antibody disclosed in Table 1 (antibody)", "heavy": "EVQLQQSGPELVKPGASVKISCKTSGYTFTEYTMHWVKQSHGKSLEWIGGINPNNGITTYNQKFKGKATLTVDKSSSTAYMDLRSLTSEGSAVYYCARRGFPIYYYGTSLYYFDYWGQGTTLTVSSASTKGPSVFPLAPSSKSTSGGTAALGCLVKDYFPEPVTVSWNSGALTSGVHTFPAVLQSSGLYSLSSVVTVPSSSLGTQTYICNVNHKPSNTKVDKRV[human IgG1 Fc skipped]", "light": "QIVLTQSPAIMSASLGEEITLTCSASSSVSYMHWYQQRSGTSPKLLIYTTSNLASGVPSRFSGSGSGTFYSLTISSVEAEDAADYYCHQWSSYPWTFGGGTKLEIKRTVAAPSVFIFPPSDEQLKSGTASVVCLLNNFYPREAKVQWKVDNALQSGNSQESVTEQDSKDSTYSLSSTLTLSKADYEKHKVYACEVTHQGLSSPVTKSFNRGEC"}}, "key": {"human ENTPD2": {"target": "T1, human ENTPD2 (Homo sapiens, UniProt Q9Y5L3)", "T1 construct": "residues 29-462 of human or cyno ENTPD2 were cloned into expression vector; GP67 signal peptide (N); made in house; host or cells: High Five (Trichoplusia ni) insect cells, baculovirus", "T1 sequence (Q9Y5L3 29-462)": "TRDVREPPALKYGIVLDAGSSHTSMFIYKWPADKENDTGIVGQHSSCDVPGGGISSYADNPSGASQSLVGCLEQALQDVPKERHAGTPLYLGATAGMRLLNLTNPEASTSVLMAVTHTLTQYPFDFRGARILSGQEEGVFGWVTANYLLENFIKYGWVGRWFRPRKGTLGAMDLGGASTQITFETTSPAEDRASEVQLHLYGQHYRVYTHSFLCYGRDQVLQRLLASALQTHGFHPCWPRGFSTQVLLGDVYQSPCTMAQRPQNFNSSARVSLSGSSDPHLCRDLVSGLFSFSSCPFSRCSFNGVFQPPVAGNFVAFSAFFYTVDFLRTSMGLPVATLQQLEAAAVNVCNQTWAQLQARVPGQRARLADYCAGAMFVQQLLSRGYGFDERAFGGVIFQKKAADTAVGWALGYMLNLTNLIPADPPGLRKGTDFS", "assay": "Biacore SPR affinity to human ENTPD2 ECD", "format": "binding", "conditions": "25° C.", "protocol": "(§1) Biacore™ Screening: Affinity was measured by determining the kinetic rate constants using surface plasmon resonance (SPR) on a Biacore™ T200 or T100 with the T200 sensitivity upgrade instrument (Biacore™, GE Healthcare). Antibodies were captured on CM5 sensor chips (Biacore™, GE Healthcare) prepared with a mouse anti-human IgG Fc antibody (ThermoFisher catalogue #05-4200) amine coupled to the surface. […] ENTPD2 analytes were allowed to associate for 180 s and dissociate for up to 1800 s depending on the off-rate of the antibody at a flow rate of 30 μL/min. The running buffer was PBS pH 7.2 (prepared from a Corning 10× stock, cat #46-013-CM)+0.05% Tween 20. Regeneration was accomplished with 30 s injections of 3 or 4 M MgCl2 to remove all the captured antibody and remaining complex from the surface, after which fresh antibody was captured. The raw data were analyzed using Biacore™ T200 Evaluation Software version 1.0 and fit to a 1:1 binding model, with all parameters set to fit globally except for RI, which was set to fit locally."}, "[1]": {"system": "cynomologus (cyno) ENTPD2", "assay": "Biacore SPR affinity to cyno ENTPD2 ECD", "format": "binding, cynomolgus monkey", "conditions": "25° C.", "protocol": "as §1"}, "mouse ENTPD2": {"target": "T2, mouse ENTPD2 (Mus musculus, UniProt O55026)", "T2 construct": "residues 29-462 of mouse or rat ENTPD2 (the extracellular domain); mouse IgK signal peptide (N); made in house; host or cells: FreeStyle 293-F cells, transient", "T2 sequence (O55026 29-462)": "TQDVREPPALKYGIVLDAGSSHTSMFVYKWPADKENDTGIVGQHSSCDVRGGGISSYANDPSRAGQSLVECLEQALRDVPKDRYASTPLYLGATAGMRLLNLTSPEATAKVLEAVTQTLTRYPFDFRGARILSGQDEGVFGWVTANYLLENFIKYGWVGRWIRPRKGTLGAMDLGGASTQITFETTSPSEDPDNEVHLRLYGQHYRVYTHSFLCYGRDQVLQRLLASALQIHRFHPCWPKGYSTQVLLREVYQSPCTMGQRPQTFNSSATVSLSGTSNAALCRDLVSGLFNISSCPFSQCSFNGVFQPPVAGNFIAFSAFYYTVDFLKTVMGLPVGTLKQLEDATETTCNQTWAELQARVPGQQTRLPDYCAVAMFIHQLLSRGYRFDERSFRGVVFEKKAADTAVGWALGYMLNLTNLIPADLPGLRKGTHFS", "assay": "Antibody specificity: binding to mouse ENTPD2", "conditions": "SPR, mouse ENTPD2", "protocol": "FACS screening: Specific binding of candidate antibodies to endogenously expressed ENTPD2 was assessed by flow cytometry. Cells were rinsed thoroughly with 1×PBS and treated with Accutase (Millipore #SCR005) to lift from growth plates and resuspended at approximately 1×10^5 cells/90 μL in 1×FACS buffer (2% FBS+0.1% NaN3 in PBS). In a 96-well U-bottom plate, 10 μL of 10× antibody solution in FACS buffer was pre-seeded and 90 μL of cell suspension was added. Cell were incubated for 30 minutes at 4° C., washed 1× with cold PBS and resuspended in 100 μL of 1:500 secondary antibody 1×FACS buffer (Allophycocyanin conjugated F(ab′)2 goat anti-human IgG, Fcγ specific; Jackson Immunoresearch, Cat #109-136-098). After additional incubation for 15 min at 4° C., cells were washed twice with PBS and resuspended in 100 μL of 1×FACS buffer with 4 μg/mL propidium iodide (Life Technologies, Cat #P3566). Geometric mean fluorescence intensity was calculated on live single cells using FlowJo software.\nELISA screening on directly coated antigen: Maxisorp™ 384-well plates (Thermo Nunc) were coated with 2 μg/ml of recombinant ENTPD2 diluted in PBS. After blocking with 2% BSA (bovine serum albumin) in PBS for 1 hr at room temperature, washing plates 3× with TBST (0.05% Tween 20 in TBS, Sigma Cat #T9039), primary antibodies in TBST and 2% BSA were added in a serial dilution and incubated for 1 hr at room temperature. Plates were washed again and bound antibodies were detected by incubation with anti-hFc gamma conjugated to horseradish peroxidase (HRP; Jackson ImmunoResearch, Cat #115-035-098, diluted 1:5000 in 1×TBST+2% BSA) for 1 hr at room temperature followed by washing with TBST and afterwards addition of SureBlue Peroxidase substrate (KPL, #52-00-03) substrate. After 15 min, absorbance at 650 nm was recorded and analyzed in GraphPad Prism6.\nas §1\nAntibody specificity for mAb1-mAb10 was confirmed. […] Antibodies mAb8, mAb9, and mAb10 show weak affinity to mouse ENTPD2. None of the selected antibodies bind to rat ENTPD2."}, "[2]": {"system": "human ENTPD2 engineered B16LM3 clone B5 tumor", "assay": "Human ENTPD2 engineered B16LM3 clone B5 xenograft model, combination with anti-PD-1 Ab", "format": "in vivo, C57BL/6 mice", "description": "This model was derived from the B16LM3 melanoma model, where endogenous mouse ENTPD2 expression was knocked out via a transient electroporation of CAS9 protein with CRISPR guide RNA sequences against mouse ENTPD2, and human ENTPD2 was overexpressed using a retroviral transduction approach.\nOnce tumors reached approximately 35-50 mm^3, mice were randomized according to tumor volume into treatment groups (n=8 per group). […] All doses were adjusted to individual mouse body weights."}, "[3]": {"target": "T3, recombinant human ENTPD2 (residues 29-462) (Homo sapiens, UniProt Q9Y5L3)", "T3 construct": "residues 29-462 of human or cyno ENTPD2 were cloned into expression vector; GP67 signal peptide (N); made in house; host or cells: High Five (Trichoplusia ni) insect cells, baculovirus", "T3 sequence (Q9Y5L3 29-462)": "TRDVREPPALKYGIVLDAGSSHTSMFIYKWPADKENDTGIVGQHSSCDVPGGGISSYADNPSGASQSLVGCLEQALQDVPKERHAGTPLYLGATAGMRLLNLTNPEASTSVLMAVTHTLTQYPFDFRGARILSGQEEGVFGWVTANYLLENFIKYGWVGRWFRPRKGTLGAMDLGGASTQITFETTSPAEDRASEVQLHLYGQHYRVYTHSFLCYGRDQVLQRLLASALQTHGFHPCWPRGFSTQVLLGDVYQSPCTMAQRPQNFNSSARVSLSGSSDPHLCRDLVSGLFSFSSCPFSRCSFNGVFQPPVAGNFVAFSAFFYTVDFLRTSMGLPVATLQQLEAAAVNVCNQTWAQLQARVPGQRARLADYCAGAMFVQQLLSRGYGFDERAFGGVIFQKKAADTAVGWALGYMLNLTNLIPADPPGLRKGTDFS", "assay": "Biochemical human ENTPD2 functional assay (Transcreener ADP2 TR-FRET)", "conditions": "FIG. 15"}}, "data": [{"molecule": "B1", "values": [{"measurement": "Human ENTPD2 ka", "setting": "human ENTPD2", "result": 130000, "unit": "M⁻¹ s⁻¹"}, {"measurement": "Human ENTPD2 kd", "setting": "human ENTPD2", "result": 0.00016, "unit": "s⁻¹"}, {"measurement": "Cyno ENTPD2 ka", "setting": "[1]", "result": 450000, "unit": "M⁻¹ s⁻¹"}, {"measurement": "Cyno ENTPD2 kd", "setting": "[1]", "result": 0.00098, "unit": "s⁻¹"}, {"measurement": "Mouse ENTPD2 BIACore KD", "setting": "mouse ENTPD2", "result": "No binding"}]}, {"molecule": "B2", "values": [{"measurement": "Human ENTPD2 ka", "setting": "human ENTPD2", "result": 350000, "unit": "M⁻¹ s⁻¹"}, {"measurement": "Human ENTPD2 kd", "setting": "human ENTPD2", "result": 0.00026, "unit": "s⁻¹"}, {"measurement": "Cyno ENTPD2 ka", "setting": "[1]", "result": 290000, "unit": "M⁻¹ s⁻¹"}, {"measurement": "Cyno ENTPD2 kd", "setting": "[1]", "result": 0.01, "unit": "s⁻¹"}, {"measurement": "ΔT/ΔC value", "setting": "[2]; 0.1 mg/kg i.v. day 1, in combination with anti-PD-1 Ab (fixed dose of 10 mg/kg), Day 7", "result": 41.0, "unit": "%"}, {"measurement": "ΔT/ΔC value", "setting": "[2]; 1 mg/kg i.v. day 1, in combination with anti-PD-1 Ab (fixed dose of 10 mg/kg), Day 7", "result": 27.3, "unit": "%"}, {"measurement": "ΔT/ΔC value", "setting": "[2]; 10 mg/kg i.v. day 1, in combination with anti-PD-1 Ab (fixed dose of 10 mg/kg), Day 7", "result": 29.2, "unit": "%"}, {"measurement": "Tumor Response ΔT/ΔC", "setting": "[2]; Day 7, mAb 10 mg/kg dosed D 1, single agent, no anti-PD-1 Ab", "result": 60.0, "unit": "%"}, {"measurement": "anti-tumor efficacy as single agents", "setting": "[2]; i.v. on day 1, single agent", "result": "No significant anti-tumor efficacy"}, {"measurement": "Host Response Δ body weight", "setting": "[2]; mAb 10 mg/kg dosed D 1, single agent, no anti-PD-1 Ab", "result": "−0.1", "unit": "%"}, {"measurement": "Mouse ENTPD2 BIACore KD", "setting": "mouse ENTPD2", "result": "No binding"}]}, {"molecule": "B3", "values": [{"measurement": "inhibition of the catalytic activity of the recombinant human ENTPD2", "setting": "[3]", "result": "potently inhibit"}]}, {"molecule": "B4", "values": [{"measurement": "inhibition of the catalytic activity of the recombinant human ENTPD2", "setting": "[3]", "result": "potently inhibit"}]}]}
